From the RNAGym collection of RNA variant scans (doi:10.7554/elife.90254)
Read counts are not given, so values of variants with three or more changes are uncertain.

B1: LINE1-mini (parent)
chain: GGCAGAGCUCAACACAGCGUGGCAAAGUGGCUGUGGCUAGACUGCC

Variants of: B1
Assay: self-cleavage, relative activity (ratio to wild type); higher = more cleavage; in vitro, sequencing; the parent is a self-cleaving ribozyme

Question: For GGCCGAGCUCAACACAGCGUGGCGAAGUGGUUGUGGGUAGACUGCC, which self-cleavage is on record?
Answer: 0.02

Question: For GGCCGAGCUCAACCCAGCGUGGCACAGAGGCUGUGGCUAGACUGCC, which self-cleavage is on record?
Answer: 0

Question: Which self-cleavage does the source give for GGCCGUGCUCAACACAGCGUGGCAAACUGGCUGUGGGUAGACUGCC here?
Answer: 0.03

Question: With GGCCGAGAUCAACACAACGUGGCAAAUUGCCUGUGGCUAGACGGCA as the variant, how does the self-cleavage read?
Answer: 0.14

Question: Which self-cleavage does the source give for GGUAGAGCUCAACACAGCGGGGCAAAGUGGCUGUGGUUAGACUGCC here?
Answer: 0.05

Question: For GGCCGAGCUCAGCUCAGCGUUGCAAAGUGGAUAUGGCUAGACUCAC, which self-cleavage is on record?
Answer: 0.02

Question: For GGCCGAGCUCAACCCAGCGUGGCAAAGUGGCUGUGGCUAUACUGCC, which self-cleavage is on record?
Answer: 0.08

Question: For GGCCGAGCUCAACACAGCGUGGCAAUGUGGCUGUGGCUAUACUGCC, which self-cleavage is on record?
Answer: 0.01

Question: Which self-cleavage does the source give for GGCCGAGCUCAACACAGCGUGGCAAUGUGGCUGUGGCUACACUGCC here?
Answer: 0.23

Question: For GGUAGAGCUCAACACAGCGUGGCAAAGUGGCUGCGGCUAGUCUGCC, which self-cleavage is on record?
Answer: 0.05

Question: Which self-cleavage does the source give for GGCCGAGCUAAACACAGCGGGGCAAAGUGGCUGUGGCUAGACUGCC here?
Answer: 0

Question: Which self-cleavage does the source give for GGUAGAGCGCAAAACAACGUGGCAAAGUGGCUGUAGCUACACAGAC here?
Answer: 0.21

Question: Which self-cleavage does the source give for GGCCGAGCUCAACACCGUGUGGCAAAUUGGCUGUGGCUAGACUGCC here?
Answer: 0.05

Question: With GGCCGAGCUAAACACAGCGUGGCAAAAUGGCUGUUGCUAGACUGCC as the variant, how does the self-cleavage read?
Answer: 0.05

Question: With GGCCGAGCUCAACACAGCGUGGCUAAGUGGCUGUGGCUAGACUGUC as the variant, how does the self-cleavage read?
Answer: 0.18

Question: With GGUAGAGCUCAACACAGCGUGGCAAAGUGGCUGUGGCAAGACUGAC as the variant, how does the self-cleavage read?
Answer: 0.14

Question: With GGCCGAGCUCGAAACAGCGUGGCAAAGUGGCUGUGGCUAGACUGCC as the variant, how does the self-cleavage read?
Answer: 0.03

Question: Which self-cleavage does the source give for GGUAGAGCUCAACACAGCGUGGCAAAGUGGCAGUGCCCAGACUGCC here?
Answer: 0.21

Question: Which self-cleavage does the source give for GGCCGAGCUCAACACAGCGUGGCACAGUGGCUGUGCCUAGACUGCC here?
Answer: 0.09

Question: Which self-cleavage does the source give for GGCCGAGCUCGACACAGCGUGGCAAAGUGGCUUUGGCUAGACUGCC here?
Answer: 0.03

Question: For GGUAGAGCUCAACACAGCGUGGCAAAGUGGCUGAGGUUAGACUGCC, which self-cleavage is on record?
Answer: 0.04

Question: Which self-cleavage does the source give for GGUAGAGCCCAACACAGCGUGGCAAAGUGGCUGUGGCUAUACUGCC here?
Answer: 0.02

Question: Which self-cleavage does the source give for GGCCGAGAUCAAAACAGCGUGGCAAAGGGGUUGUGGCUAGACUAAC here?
Answer: 0.08

Question: For GGCCGAGCUCAACACAGCGUGGCCAAGUCGCUGUGGCUAGAGUGCC, which self-cleavage is on record?
Answer: 0.02

Question: With GGCCGCCCUCAACACAGCGUGGCAAAGUGGCUGUGGCUAGACUGCC as the variant, how does the self-cleavage read?
Answer: 0.14

Question: Which self-cleavage does the source give for GGCCGGGCUCAACACAGCGAGGCAAAGUGGCUGUGGCUAGACUGCC here?
Answer: 0.08

Question: With GGCCGAGCUCAACACAGCGUGGCAAAGUGGCUGUGGCUAGUCUGAA as the variant, how does the self-cleavage read?
Answer: 0.04

Question: With GGCCGCCCUCAACGCCGCGUGGCAAAGUGGCUGUGGCUAGAGUGCC as the variant, how does the self-cleavage read?
Answer: 0.22

Question: Which self-cleavage does the source give for GGCCGAGCUCAACACGGCGUGUCAAAGUGGCUGUGGCUAGACUGCC here?
Answer: 0.02

Question: With GGUAGAGCGCAACACAGCGUGGCAAAGUGGCUGAGGCUAGACUACC as the variant, how does the self-cleavage read?
Answer: 0.09

Question: For GGCCGAGCUAAACACAGCGUGGCGAAGUGGCUGUGCCUAGACUGCC, which self-cleavage is on record?
Answer: 0.03

Question: With GGCCGAGCUCACCACAGCGUGGAAAAGUGGCUGUGGCUAGACUGCC as the variant, how does the self-cleavage read?
Answer: 0.15

Question: For GGUAGAGCACAACACAGCGUGGCAAAGUGGCUGCGGCUACACUGCC, which self-cleavage is on record?
Answer: 0.03

Question: Which self-cleavage does the source give for GGUAGAGCACAACACAGCGUGGUAACGUGGCUGUGGCUAGACUGCC here?
Answer: 0.21

Question: Which self-cleavage does the source give for GGCCGAGCUCUACACAGCGUGGUAAAGUGGCUGUGGCGAGACUACC here?
Answer: 0.01

Question: Which self-cleavage does the source give for GGCCGUGCUCAACACACCGUGGCAAAGUGGCUGUGGCUAGACUGCC here?
Answer: 0.61

Question: Which self-cleavage does the source give for GGCCGAGCUCAACACCGCGUGUCAAAGCUGCGGUGGCUAGACUGCA here?
Answer: 0.06

Question: With GGCCGAGGUCAACACAGCGUGGCAAUGUGGCUGUGGUUAGACUGCC as the variant, how does the self-cleavage read?
Answer: 0.01

Question: Which self-cleavage does the source give for GGCCGAGCUAAACACACCGUGGCAAAGUGGCUGUGGCUAGACUGGC here?
Answer: 0.06

Question: For GGUAGAGCUCAACACAGCGUGGCAAAGGGGCAGUCGCUAGACUGCC, which self-cleavage is on record?
Answer: 0.12

Question: With GGCCGAGCUCAACACUGCGUGGUAAAGAGGCUGUGGAUAGACUGCC as the variant, how does the self-cleavage read?
Answer: 0.02

Question: Which self-cleavage does the source give for GGCCGAGCUCCACACACCGUGGCAAAGUGCCUGUGGCUAGACUGCC here?
Answer: 0.02

Question: For GGCCGAGCUCUACACAGCGUGGCAAAGUGGAUGUGGCUAGACUGCC, which self-cleavage is on record?
Answer: 0.02

Question: For GGCCGAGGACAACACAGCGUGGCAAAGUGGCUGUGGCUAGACUGGC, which self-cleavage is on record?
Answer: 0.12

Question: Which self-cleavage does the source give for GGCCGAGCUCAACUCAGGGUGGCAAAGUGGCUGUGACUAGAAUGCC here?
Answer: 0.15

Question: For GGCCGAGCUGAAAACAGCGUGGCAAAGUGGCUAUGGCUAGACUCCC, which self-cleavage is on record?
Answer: 0.01

Question: With GGCCGAGCUCAACUCAGCGUGGCAAAGUGGCUGUGGCUAAACUGCC as the variant, how does the self-cleavage read?
Answer: 0.24

Question: With GGCCGAGCUCAACUCAGCGUGGCAAAGGGGCUGUGGCUUGACUGCC as the variant, how does the self-cleavage read?
Answer: 0.03

Question: With GGUAGAGCUCAACACAGCGAGGCAAAGUGGGUGUGGCUAGACUGCC as the variant, how does the self-cleavage read?
Answer: 0.03

Question: Which self-cleavage does the source give for GGCCGGGCUCAACUCAGCGUGGCAAAGUGGCUGUGGCUAGACUGCC here?
Answer: 0.03

Question: With GGUAGAGCUCAACACAGCGCGGUAAAGUGACUGUGGCUGGACUGCC as the variant, how does the self-cleavage read?
Answer: 0.02

Question: For GGCCGAGCUCAACACAGCGUGGCACAGUGGCUGUGGAUAGACUACC, which self-cleavage is on record?
Answer: 0.17

Question: With GGCCGCGCUCAACACAGCGUGCCCAAGUGGCUGUGGCUAGACUGCC as the variant, how does the self-cleavage read?
Answer: 0.06

Question: With GGCCGGGCUCAACAUAGCGUGGCAAAGUGGCUGUGGCUAGACAGCC as the variant, how does the self-cleavage read?
Answer: 0.17

Question: With GGCCGAGCUCAACACAGCGUGGCAAUCUGGAUGUGGCUAAACUGCC as the variant, how does the self-cleavage read?
Answer: 0.16

Question: For GGCCGAGCUCAACACAGCGUGGCAUAGUGGAUGUGGCUAGACUGCC, which self-cleavage is on record?
Answer: 0.02
